Results on 31 sequences are retold here after PMC12820563, “FoxP3 forms a head-to-head dimer in vivo and stabilizes its multimerization on adjacent microsatellites”.

The list shows a part of the results.

This test addresses T1, MBP-FoxP1dN (Mus musculus, UniProt P58462 326-579).
T1 sequence: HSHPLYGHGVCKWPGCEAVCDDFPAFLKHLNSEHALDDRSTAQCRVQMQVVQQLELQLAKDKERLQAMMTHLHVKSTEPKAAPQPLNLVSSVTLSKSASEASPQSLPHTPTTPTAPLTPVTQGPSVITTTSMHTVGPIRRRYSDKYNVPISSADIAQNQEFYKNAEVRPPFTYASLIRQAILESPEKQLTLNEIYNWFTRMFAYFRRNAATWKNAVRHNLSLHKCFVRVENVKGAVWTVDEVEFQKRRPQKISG
In words: PD-seq (MBP pull-down with sequencing); 20 mM Tris-HCl pH 7.5, 100 mM NaCl, 1.5 mM MgCl2, 0.4 uM protein, 0.1 uM dsDNA library, 30 min, room temperature, amylose pull-down; high values mean tight binding. Conditions: protein: recombinant; tags: His6-MBP; chain copies: 2; dsDNA, one strand shown. A digest of the protocol:
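Binding is given as reads-per-million enrichment, pull-down over input, with replicates pooled. The bait was an N-terminus-lacking mouse FoxP3 or FoxP1 fragment with a His6-MBP tag, expressed in E. coli and used at 0.4 µM with 0.1 µM Klenow-filled degenerate double-stranded DNA library for 30 min at room temperature in Tris pH 7.5 buffer with NaCl and MgCl2. Amylose resin pull-down with three washes was followed by proteinase K release, PCR barcoding and Illumina sequencing.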
As to “GATGATTGTTCTCCCAGCTGATGAATTACGAACTTCGAGTAAACAAATTTTCCTAATCTTTCTGTTCAAGCGCCATCTAC”, the binding signal is 0.975 RPM ratio (pull-down/input).

On to “GATGATTGTTCTCCCAGCTGATGAATTCTCGGCCTCGAGTAAACAAATTTTCCTAATCTTTCTGTTCAAGCGCCATCTAC”, for which the binding signal is 0.731 RPM ratio (pull-down/input).

In the case of “GATGATTGTTCTCCCAGCTGATGAATTATATTCGTCGAGTAAACAAATTTTCCTAATCTTTCTGTTCAAGCGCCATCTAC”, the binding signal is 0.944 RPM ratio (pull-down/input).

As for “GATGATTGTTCTCCCAGCTGATGAATTTGCCCGATCGAGTAAACAAATTTTCCTAATCTTTCTGTTCAAGCGCCATCTAC”, the binding signal is 0.831 RPM ratio (pull-down/input).

On to “GATGATTGTTCTCCCAGCTGATGAATTACCCTAATCGAGTAAACAAATTTTCCTAATCTTTCTGTTCAAGCGCCATCTAC”, for which the binding signal was 1.13 RPM ratio (pull-down/input).

As for “GATGATTGTTCTCCCAGCTGATGAATTCGGTCCTTCGAGTAAACAAATTTTCCTAATCTTTCTGTTCAAGCGCCATCTAC”, the binding signal was 0.805 RPM ratio (pull-down/input).

In the case of “GATGATTGTTCTCCCAGCTGATGAATTTCAAGCATCGAGTAAACAAATTTTCCTAATCTTTCTGTTCAAGCGCCATCTAC”, the binding signal was 1.01 RPM ratio (pull-down/input).

On to “GATGATTGTTCTCCCAGCTGATGAATTCCGTGATTCGAGTAAACAAATTTTCCTAATCTTTCTGTTCAAGCGCCATCTAC”, for which the binding signal was 0.843 RPM ratio (pull-down/input).

Turning to “GATGATTGTTCTCCCAGCTGATGAATTTACTCAATCGAGTAAACAAATTTTCCTAATCTTTCTGTTCAAGCGCCATCTAC”, the binding signal was 1.35 RPM ratio (pull-down/input).

Take “GATGATTGTTCTCCCAGCTGATGAATTAGTGTAGTCGAGTAAACAAATTTTCCTAATCTTTCTGTTCAAGCGCCATCTAC”: the binding signal is 1.05 RPM ratio (pull-down/input).

In the case of “GATGATTGTTCTCCCAGCTGATGAATTTGTTGGGTCGAGTAAACAAATTTTCCTAATCTTTCTGTTCAAGCGCCATCTAC”, the binding signal is 1.56 RPM ratio (pull-down/input).

“GATGATTGTTCTCCCAGCTGATGAATTCGTCTCGTCGAGTAAACAAATTTTCCTAATCTTTCTGTTCAAGCGCCATCTAC”: the binding signal is 0.814 RPM ratio (pull-down/input).

For the sequence “GATGATTGTTCTCCCAGCTGATGAATTTGACGTATCGAGTAAACAAATTTTCCTAATCTTTCTGTTCAAGCGCCATCTAC”, the binding signal was 0.962 RPM ratio (pull-down/input).

In the case of “GATGATTGTTCTCCCAGCTGATGAATTCGTCTTATCGAGTAAACAAATTTTCCTAATCTTTCTGTTCAAGCGCCATCTAC”, the binding signal was 0.93 RPM ratio (pull-down/input).

In the case of “GATGATTGTTCTCCCAGCTGATGAATTGAATGAATCGAGTAAACAAATTTTCCTAATCTTTCTGTTCAAGCGCCATCTAC”, the binding signal was 0.958 RPM ratio (pull-down/input).

Take “GATGATTGTTCTCCCAGCTGATGAATTCTTACCGTCGAGTAAACAAATTTTCCTAATCTTTCTGTTCAAGCGCCATCTAC”: the binding signal is 0.868 RPM ratio (pull-down/input).

Turning to “GATGATTGTTCTCCCAGCTGATGAATTCCTCGCATCGAGTAAACAAATTTTCCTAATCTTTCTGTTCAAGCGCCATCTAC”, the binding signal is 1.09 RPM ratio (pull-down/input).

For “GATGATTGTTCTCCCAGCTGATGAATTCGCACAGTCGAGTAAACAAATTTTCCTAATCTTTCTGTTCAAGCGCCATCTAC”, the binding signal is 0.856 RPM ratio (pull-down/input).

“GATGATTGTTCTCCCAGCTGATGAATTATCCAAGTCGAGTAAACAAATTTTCCTAATCTTTCTGTTCAAGCGCCATCTAC”: the binding signal is 0.914 RPM ratio (pull-down/input).

On to “GATGATTGTTCTCCCAGCTGATGAATTCAATAAATCGAGTAAACAAATTTTCCTAATCTTTCTGTTCAAGCGCCATCTAC”, for which the binding signal was 1.23 RPM ratio (pull-down/input).

“GATGATTGTTCTCCCAGCTGATGAATTACCAGTCTCGAGTAAACAAATTTTCCTAATCTTTCTGTTCAAGCGCCATCTAC”: the binding signal was 0.859 RPM ratio (pull-down/input).

“GATGATTGTTCTCCCAGCTGATGAATTCAGAGAATCGAGTAAACAAATTTTCCTAATCTTTCTGTTCAAGCGCCATCTAC”: the binding signal is 0.918 RPM ratio (pull-down/input).

“GATGATTGTTCTCCCAGCTGATGAATTATGAGCATCGAGTAAACAAATTTTCCTAATCTTTCTGTTCAAGCGCCATCTAC”: the binding signal was 1.16 RPM ratio (pull-down/input).

Take “GATGATTGTTCTCCCAGCTGATGAATTATGCCGCTCGAGTAAACAAATTTTCCTAATCTTTCTGTTCAAGCGCCATCTAC”: the binding signal was 0.975 RPM ratio (pull-down/input).

Regarding “GATGATTGTTCTCCCAGCTGATGAATTCGAACCGTCGAGTAAACAAATTTTCCTAATCTTTCTGTTCAAGCGCCATCTAC”, the binding signal is 0.827 RPM ratio (pull-down/input).

In the case of “GATGATTGTTCTCCCAGCTGATGAATTAGTTAATTCGAGTAAACAAATTTTCCTAATCTTTCTGTTCAAGCGCCATCTAC”, the binding signal was 1.06 RPM ratio (pull-down/input).

For “GATGATTGTTCTCCCAGCTGATGAATTGGCTAAATCGAGTAAACAAATTTTCCTAATCTTTCTGTTCAAGCGCCATCTAC”, the binding signal is 0.965 RPM ratio (pull-down/input).

With “GATGATTGTTCTCCCAGCTGATGAATTCCATAACTCGAGTAAACAAATTTTCCTAATCTTTCTGTTCAAGCGCCATCTAC”, the binding signal is 0.789 RPM ratio (pull-down/input).

As for “GATGATTGTTCTCCCAGCTGATGAATTTAGCCACTCGAGTAAACAAATTTTCCTAATCTTTCTGTTCAAGCGCCATCTAC”, the binding signal was 0.885 RPM ratio (pull-down/input).

In the case of “GATGATTGTTCTCCCAGCTGATGAATTGTGCGTCTCGAGTAAACAAATTTTCCTAATCTTTCTGTTCAAGCGCCATCTAC”, the binding signal is 1.09 RPM ratio (pull-down/input).

In the case of “GATGATTGTTCTCCCAGCTGATGAATTCCACCTATCGAGTAAACAAATTTTCCTAATCTTTCTGTTCAAGCGCCATCTAC”, the binding signal is 0.864 RPM ratio (pull-down/input).
